According to PubChem BioAssay AID2147 (National Center for Advancing Translational Sciences (NCATS), 2009):
Out of some 230,000 compounds screened, about 3,600 (1.6%) were called active. Inconclusive results, whose numbers are uncertain, are shown with a selection of clear calls. Calls come from the whole dose curve; as a rule, active = well fitted inhibition curve with a large enough effect (not every such curve was filed as active); inconclusive = small, poorly fitted or top-dose-only effect, or another doubt; inactive = no such curve, though single readings can be large or run the other way. A potency beside an inconclusive call is a rough fit, not a confirmed value.

Target: Lysine-specific demethylase 4E (Homo sapiens) (UniProt B2RXH2)
Sequence of UniProt B2RXH2 (B2RXH2 whole entry, looked up, the tested form may be a part): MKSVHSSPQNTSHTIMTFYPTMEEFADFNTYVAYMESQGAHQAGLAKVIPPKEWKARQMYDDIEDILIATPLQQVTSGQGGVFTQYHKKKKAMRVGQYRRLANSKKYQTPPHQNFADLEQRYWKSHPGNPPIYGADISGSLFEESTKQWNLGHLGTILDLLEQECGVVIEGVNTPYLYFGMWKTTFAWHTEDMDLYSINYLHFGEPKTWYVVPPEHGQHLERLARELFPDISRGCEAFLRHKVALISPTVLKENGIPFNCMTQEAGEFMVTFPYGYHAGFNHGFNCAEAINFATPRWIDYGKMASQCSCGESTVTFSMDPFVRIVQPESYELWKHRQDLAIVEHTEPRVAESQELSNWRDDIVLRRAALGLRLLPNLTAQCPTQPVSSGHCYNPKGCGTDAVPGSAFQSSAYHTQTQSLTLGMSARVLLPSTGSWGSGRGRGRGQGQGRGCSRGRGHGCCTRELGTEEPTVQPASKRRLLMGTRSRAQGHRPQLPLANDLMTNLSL
Test: qHTS Assay for Inhibitors of Human Jumonji Domain Containing 2E (JMJD2E)
Settings: JMJD2E catalytic domain, FDH-coupled NADH fluorescence (FDH is formaldehyde dehydrogenase); series mostly up to 57.1 µM
Note: nearly all actives have a fitted effect of over 50% in size.
Potency is the fitted concentration of half-maximal effect; tags give direction and shape of the fitted curve.
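Throughout, for activity change, negative = inhibition: 0% = wells with enzyme and -100% = buffer wells without enzyme.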

SMILES | Potency | activity change, negative = inhibition
COc1ccc(C(=O)n2c(C)c(CCO)c(=O)n2C)cc1 | inactive | –
CCc1cc(/C(Cc2ccccn2)=N\Nc2ccccc2)c(O)cc1O | inconclusive: 25.1 µM [inhibitor, partial curve] | –
COc1cc2nc3occc3c(OC)c2cc1OC | inconclusive: 39.8 µM [inhibitor, single point] | –
CCn1cc(C(=O)O)c(=O)c2cc(OC)ccc21 | inconclusive: 20 µM [inhibitor, partial curve] | –
O=S(=O)(c1cccs1)N1CN(Cc2cccs2)c2nc3ccccc3nc21 | inconclusive: 39.8 µM [inhibitor, single point] | –
Cc1cc(=O)oc2cc(OCC(=O)OCC(=O)NCCc3ccccc3)ccc12 | inconclusive: 25.1 µM [inhibitor, partial curve] | –
c1ccc2oc(-c3ccc(Nc4nc(N5CCCC5)nc(N5CCOCC5)n4)cc3)nc2c1 | inconclusive: 3.55 µM [inhibitor, partial curve] | –
COc1cccc(NC(=O)C2CCN(c3ncccn3)CC2)c1 | inconclusive: 39.8 µM [inhibitor, single point] | –
CCOC(=O)c1oc2nc(CC(C)C)c3c(c2c1N)CCCC3 | inconclusive: 35.5 µM [inhibitor, partial curve] | –
O=C(CCCCC(=O)NCc1cccs1)NCc1cccs1 | inactive | –
COc1ccc(NC(=O)c2nnn(Cc3cccc(F)c3)c2N)c(OC)c1 | inconclusive: 25.1 µM [inhibitor, partial curve] | –
COc1ccccc1Nc1nc(-c2ccccc2)nc2ccccc12 | inconclusive: 35.5 µM [inhibitor, partial curve] | –
CN(C)C/C=C/C(O)(c1ccccc1)c1ccccc1 | inconclusive: 8.91 µM [inhibitor, single point] | –
COC(=O)c1ccccc1NC(=O)C1CCCC1 | inconclusive: 31.6 µM [inhibitor, single point] | –
Cc1ccc(NC(=O)[C@@H](NC(=O)c2cccc(S(=O)(=O)N3CCOCC3)c2)C(C)C)cc1C | inconclusive: 6.31 µM [inhibitor, single point] | –
Cc1cc(C)n(-c2ccc(Cl)c(C(=O)Nc3ccc(-c4nnc5n4CCCCC5)cc3)n2)n1 | inconclusive: 39.8 µM [inhibitor, single point] | –
Cc1cc(Nc2ccc3ccccc3c2)n2ncnc2n1 | inactive | –
N#Cc1c(-c2ccccc2)nc(-c2ccccc2)nc1N1CCOCC1 | inconclusive: 25.1 µM [inhibitor, single point] | –
O=C(CN1C(=O)c2ccccc2S1(=O)=O)c1ccc(O)c(O)c1 | active: 14.1 µM | –
CC/C(=C\C(=O)c1ccncc1)Nc1ccc(Br)cc1 | inactive | –
COc1ccc(CCNc2nc(C)nc3c2oc2ccccc23)cc1OC | inactive | –
Nc1nnc(/C=C/c2ccccc2Cl)s1 | inconclusive: 31.6 µM [inhibitor, partial curve] | –
c1ccc(N2CCN(c3nc4ccccc4n4cnnc34)CC2)cc1 | inconclusive: 39.8 µM [inhibitor, single point] | –

SMILES | Potency | activity change, negative = inhibition
COc1ccc(-c2nc3c(c4c2C[C@H](c2ccccc2)OC4)CN(C(=O)C2CCCCC2)CC3)c(C)c1 | – | inactive: -2.13% [at 11.4 µM]
c1ccc2cc(OCCOCCOc3ccc4ccccc4c3)ccc2c1 | inconclusive: 39.8 µM [inhibitor, single point] | –
CCCC(=O)OCCn1c(Br)nc2c1c(=O)[nH]c(=O)n2C | inconclusive: 39.8 µM [inhibitor, single point] | –
Clc1ccc2c(c1)C1=C(C(c3ccncc3)O2)C(c2ccc(Br)cc2)n2ncnc2N1 (stereo unspecified) | inconclusive: 11.2 µM [inhibitor, partial curve] | –
CN(C)c1cccc2c1c(NC(=O)Nc1ccc(Cl)cc1Cl)nn2C | inactive | –
COC(=O)c1ccc(C23CC4(C2)[C@H](CN(Cc2ccc(C(F)(F)F)cc2)[C@@H]4c2ccccc2)C3c2ccccc2)cc1 (stereo partly specified) | inconclusive: 39.8 µM [inhibitor, single point] | –
Cc1ccc(S(=O)(=O)c2nc(S(C)(=O)=O)sc2NCC2CCCO2)cc1 (stereo unspecified) | inactive | –
CCCCOC(=O)Cc1c(O)c2ccccc2[nH]c1=O | inconclusive: 28.2 µM [inhibitor, partial curve] | –
O=[N+]([O-])c1cc(Br)c(O)c(/C=N/Nc2nnnn2-c2cccc3ccccc23)c1 | inconclusive: 35.5 µM [inhibitor, single point] | –
N#C/C(=C\c1cccs1)C(=O)c1ccccc1Cl | inconclusive: 15.8 µM [inhibitor, partial curve, poor fit] | –
CCOC(=O)c1c(C)[nH]c(C)c1C(=O)COC(=O)c1ccc(OC)c(OC)c1 | inactive | –
O=C(CN1CCOCC1)N/N=C/c1ccc(-c2ccc(C(=O)O)cc2)o1 | inconclusive: 28.2 µM [inhibitor, partial curve] | –
Cc1ccc(-n2c(-c3ccccc3)cc(/C=N/NC(=O)CC#N)c2-c2ccccc2)cc1 | inconclusive: 28.2 µM [inhibitor, partial curve] | –
Cc1[nH][nH]c(=O)c1N=Nc1ccccc1Cl | inactive | –
Cc1cc(N2CCCC2)nc2ccc(NC(=S)NC(C)C)cc12 | inconclusive: 25.1 µM [inhibitor, single point] | –
C=CCOC(=O)C1=C(C)NC(SCC(=O)N(CC)CC)=C(C#N)C1c1ccccc1 (stereo unspecified) | inconclusive: 39.8 µM [inhibitor, single point] | –
CN(CC(=O)NC1CCCc2ccccc21)C1CCCCC1 (stereo unspecified) | inactive | –
CCn1c(N)c(C(=O)NCc2cccnc2)sc1=S | inactive | –
CNC1CCC(c2ccc(Cl)c(Cl)c2)c2ccccc21 (stereo unspecified) | inactive | –
Cn1c2ccccc2c2cc(C(=O)NNC(=O)CCl)sc21 | inconclusive: 25.1 µM [inhibitor, partial curve] | –
S=c1[nH]nc(Cc2cccc3ccccc23)n1-c1ccccc1 | inactive | –
CCOc1ccc(C2Nc3cccc4cccc(c34)N2)cc1OC | inconclusive: 1.58 µM [inhibitor, full curve] | –
CN1/C(=C\C(=O)Nc2ccc(F)cc2)C(C)(C)c2ccccc21 | inconclusive: 31.6 µM [inhibitor, single point] | –
